Experimental data reported in the supplement of paper PMC12217912.
Some of the results follow. Sequences were assembled here from the parent chain. Values near 0.05 are background.

B1: TEV protease; numbered along this chain (parent)
chain: MGESLFKGPRDYNPISSSICHLTNESDGHTTSLYGIGFGPFIITNKHLFRRNNGTLVVQSLHGVFKVKDTTTLQQHLVDGRDMIIIRMPKDFPPFPQKLKFREPQREERICLVTTNFQTKSMSSMVSDTSCTFPSGDGIFWKHWIQTKDGQCGSPLVSTRDGFIVGIHSASNFTNTNNYFTSVPKNFMELLTNQEAQQWVSGWRLNADSVLWGGHKVFMVKPEEPFQPVKEATQL

Variants of: B1
Experiment: raw area under fraction-flipped curve 0-4 h after induction (AUC4h, not background-subtracted), DNA-recorder readout of cleavage of the substrate (dimensionless); higher = more cleavage of the substrate by the protease variant
Settings: temperature: 34 °C; time window: 0-4 h after rhamnose induction
Method: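 In vivo DNA recorder in E. coli TOP10(DE3) ΔrhaA at 34 °C. Each TEVp single-site mutant (parent TEVp 0) is paired with a single-site variant of the 7-mer TEVs (canonical ENLYFQ|S). The substrate sits between flexible linkers in a Bxb1-sfGFP-TEVs-SsrA fusion, so cleavage stabilises Bxb1 and speeds flipping of a recombination array, read by NGS. The value is the raw area under the fraction-flipped curve over 0-4 h after rhamnose induction (AUC4h), with ≥20 reads per time point. It is not background-subtracted; inactive controls average about 0.047.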
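Also: Bxb1 expression induced with 0.2% (w/v) L-rhamnose at OD600 near 0.5, cultures sampled hourly, flipped fraction per protease–substrate barcode pair counted by paired-end Illumina sequencing.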

Variant | area with substrate ENLAFQS | area with substrate ENLEFQS | area with substrate ENLFFQS | area with substrate ENLGFQS | area with substrate ENLHFQS | area with substrate ENLLFQS | area with substrate ENLMFQS | area with substrate ENLPFQS | area with substrate ENLQFQS | area with substrate ENLWFQS | area with substrate ENLCFQS | area with substrate ENLDFQS | area with substrate ENLIFQS | area with substrate ENLKFQS | area with substrate ENLNFQS | area with substrate ENLRFQS | area with substrate ENLSFQS | area with substrate ENLVFQS | area with substrate ENLTFQS
MGESLFKGPRDYNPISSSICHLTNESDGHTTSLYGIGFGPFIITNKHLFRRNNGTLVVQSLHGVFKVKDTTTLQQHLVDGRDMIIIRMPKDFPPFPQKLKFREPQREERICLVTTNFQTTSMSSMVSDTSCTFPSGDGIFWKHWIQTKDGQCGSPLVSTRDGFIVGIHSASNFTNTNNYFTSVPKNFMELLTNQEAQQWVSGWRLNADSVLWGGHKVFMVKPEEPFQPVKEATQL [K120T] | 0.0735 | 0.0592 | 0.0531 | 0.0525 | 0.0658 | 0.0551 | 0.1 | 0.0387 | 0.0787 | 0.0736 |  |  |  |  |  |  |  |  | 
MGESLFKGPRDYNPISSSICHLTNESDGHTTSLYGIGFGPFIITNKHLFRRNNGTLVVQSLHGVFKVKDTTTLQQHLVDGRDMIIIRMPKDFPPFPQKLKFREPQREERICLVTTNFQTKQMSSMVSDTSCTFPSGDGIFWKHWIQTKDGQCGSPLVSTRDGFIVGIHSASNFTNTNNYFTSVPKNFMELLTNQEAQQWVSGWRLNADSVLWGGHKVFMVKPEEPFQPVKEATQL [S121Q] | 0.0614 | 0.0587 | 0.0805 |  | 0.0644 |  | 0.06 | 0.061 | 0.0694 | 0.0523 | 0.0706 | 0.0699 | 0.0874 | 0.0733 | 0.0626 | 0.0645 | 0.0768 | 0.0752 | 
MGESLFKGPRDYNPISSSICHLTNESDGHTTSLYGIGFGPFIITNKHLFRRNNGTLVVQSLHGVFKVKDTTTLQQHLVDGRDMIIIRMPKDFPPFPQKLKFREPQREERICLVTTNFQTKSMWSMVSDTSCTFPSGDGIFWKHWIQTKDGQCGSPLVSTRDGFIVGIHSASNFTNTNNYFTSVPKNFMELLTNQEAQQWVSGWRLNADSVLWGGHKVFMVKPEEPFQPVKEATQL [S123W] | 0.0659 | 0.0626 | 0.0897 | 0.0568 | 0.0699 | 0.0791 |  | 0.068 | 0.0751 | 0.0631 | 0.0688 | 0.0623 | 0.081 | 0.0921 | 0.0623 | 0.0663 | 0.0711 |  | 
MGESLFKGPRDYNPISSSICHLTNESDGHTTSLYGIGFGPFIITNKHLFRRNNGTLVVQSLHGVFKVKDTTTLQQHLVDGRDMIIIRMPKDFPPFPQKLKFREPQREERICLVTTNFQTKSMSKMVSDTSCTFPSGDGIFWKHWIQTKDGQCGSPLVSTRDGFIVGIHSASNFTNTNNYFTSVPKNFMELLTNQEAQQWVSGWRLNADSVLWGGHKVFMVKPEEPFQPVKEATQL [S124K] | 0.0564 |  | 0.1 | 0.0754 | 0.0614 | 0.0408 | 0.0865 | 0.059 |  | 0.0632 |  | 0.0716 |  | 0.0778 | 0.065 | 0.0762 | 0.061 | 0.0899 | 
MGESLFKGPRDYNPISSSICHLTNESDGHTTSLYGIGFGPFIITNKHLFRRNNGTLVVQSLHGVFKVKDTTTLQQHLVDGRDMIIIRMPKDFPPFPQKLKFREPQREERICLVTTNFQTKSMSSDVSDTSCTFPSGDGIFWKHWIQTKDGQCGSPLVSTRDGFIVGIHSASNFTNTNNYFTSVPKNFMELLTNQEAQQWVSGWRLNADSVLWGGHKVFMVKPEEPFQPVKEATQL [M125D] | 0.0692 | 0.0599 | 0.101 |  | 0.0727 |  | 0.0771 | 0.0605 | 0.0695 | 0.0585 | 0.0734 | 0.0592 |  | 0.0812 | 0.0641 | 0.068 | 0.0794 |  | 0.0632
MGESLFKGPRDYNPISSSICHLTNESDGHTTSLYGIGFGPFIITNKHLFRRNNGTLVVQSLHGVFKVKDTTTLQQHLVDGRDMIIIRMPKDFPPFPQKLKFREPQREERICLVTTNFQTKSMSSMTSDTSCTFPSGDGIFWKHWIQTKDGQCGSPLVSTRDGFIVGIHSASNFTNTNNYFTSVPKNFMELLTNQEAQQWVSGWRLNADSVLWGGHKVFMVKPEEPFQPVKEATQL [V126T] | 0.069 | 0.0624 | 0.0898 |  | 0.0641 |  |  | 0.0632 | 0.0613 | 0.0709 | 0.0662 | 0.0699 | 0.0871 | 0.0482 | 0.0686 | 0.0751 | 0.0582 | 0.0938 | 
MGESLFKGPRDYNPISSSICHLTNESDGHTTSLYGIGFGPFIITNKHLFRRNNGTLVVQSLHGVFKVKDTTTLQQHLVDGRDMIIIRMPKDFPPFPQKLKFREPQREERICLVTTNFQTKSMSSMVTDTSCTFPSGDGIFWKHWIQTKDGQCGSPLVSTRDGFIVGIHSASNFTNTNNYFTSVPKNFMELLTNQEAQQWVSGWRLNADSVLWGGHKVFMVKPEEPFQPVKEATQL [S127T] | 0.0843 | 0.0622 | 0.0814 | 0.0702 | 0.0609 | 0.0795 | 0.092 | 0.0597 | 0.0711 | 0.0746 | 0.0772 | 0.0705 |  | 0.0911 | 0.0592 |  | 0.0738 | 0.0837 | 0.0753
MGESLFKGPRDYNPISSSICHLTNESDGHTTSLYGIGFGPFIITNKHLFRRNNGTLVVQSLHGVFKVKDTTTLQQHLVDGRDMIIIRMPKDFPPFPQKLKFREPQREERICLVTTNFQTKSMSSMVSSTSCTFPSGDGIFWKHWIQTKDGQCGSPLVSTRDGFIVGIHSASNFTNTNNYFTSVPKNFMELLTNQEAQQWVSGWRLNADSVLWGGHKVFMVKPEEPFQPVKEATQL [D128S] | 0.0539 |  | 0.119 |  | 0.0844 | 0.0641 |  | 0.0571 |  | 0.0936 | 0.0943 |  | 0.108 | 0.11 | 0.0581 | 0.129 |  | 0.118 | 
MGESLFKGPRDYNPISSSICHLTNESDGHTTSLYGIGFGPFIITNKHLFRRNNGTLVVQSLHGVFKVKDTTTLQQHLVDGRDMIIIRMPKDFPPFPQKLKFREPQREERICLVTTNFQTKSMSSMVSDTSCDFPSGDGIFWKHWIQTKDGQCGSPLVSTRDGFIVGIHSASNFTNTNNYFTSVPKNFMELLTNQEAQQWVSGWRLNADSVLWGGHKVFMVKPEEPFQPVKEATQL [T132D] | 0.0536 | 0.0525 | 0.0662 | 0.0641 | 0.0591 | 0.0536 |  | 0.0606 |  | 0.0611 | 0.0543 | 0.0534 | 0.064 |  | 0.0501 | 0.0569 | 0.0513 | 0.0546 | 0.0536
